Experimental data reported in PubChem BioAssay AID1508623 (National Center for Advancing Translational Sciences (NCATS), 2021).
About 450 (0.94%) of roughly 48,000 compounds were called active. Another 19% or so got no clear call; they are omitted. The call rests on the fitted dose curve; in most records, active means well fitted inhibition curve with a large enough effect; inconclusive means small, poorly fitted or top-dose-only effect; inactive means no such curve, though single readings can be large or run the other way. The list shows a part of the results.

test: Primary qHTS for Identification of Small Molecule Inhibitors of Huntingtin Promoter Activity; details: HEK293 HTT promoter firefly luciferase reporter (activity 0% = vehicle and -100% = no light), 24 h; series mostly up to 57.5 µM; activity change, negative = inhibition: at the top concentration; further: nearly all actives have a fitted effect of over 50% in size
Procedure, shortened: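 Firefly luciferase readout (Dual-Glo, 10 min RT) after 24 h, 37 °C compound exposure (final up to 57.5 uM) of HEK293 reporter cells cultured 24 h beforehand; PTC124 at 50 uM final as control inhibitor; activity scaled vehicle 0%, zero RLU -100%.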

Activity change, negative = inhibition, inactive:
O=c1c(S(=O)(=O)c2ccccc2)cn(Cc2ccccc2)c2cc(N3CCCC3)c(F)cc12 -10.5%, COc1ccc(OC)c(C2CC(=O)Nc3c2c(=O)[nH]c2nc4ccccc4n32)c1 (stereo not drawn) -6.63%, N#Cc1ccc(NC(=O)COCc2cc(-c3ccco3)on2)cc1 -7.26%, CCOC(=O)C1CCN(CCC(=O)Nc2ccccc2OC)CC1 -6.26%, Cc1cccc(Nc2nnc(-c3ccc(C)c(S(=O)(=O)N4CCN(C)CC4)c3)c3ccccc23)c1 -27.1%, Cc1ccc(Cl)cc1NC(=O)Cn1c(=O)n(C(C)C)c(=O)c2oc3ccccc3c21 5.24%, CC(C)CCNC(=O)C(=O)Nc1c2c(nn1-c1ccc(Cl)cc1)CSC2 -6.03%, Cc1ccc(-n2nc(-c3ccccc3)c3cnc4cc5c(cc4c32)OCO5)cc1C -3.23%, CC(=O)Nc1cccc(NC(=O)CSc2ccc(-c3sc(-c4ccccc4)nc3C)nn2)c1 8.05%, O=C(O)CCc1ccc(-c2ccccc2)n1-c1ccc(C(=O)O)cc1 -16.1%, CCOC(=O)C(C)Sc1nc(-c2ccccc2)ccc1C#N (stereo not drawn) -12.4%, CCC(C)NC(=O)c1c(C)oc2nc(C)nc(N3CCOCC3)c12 (stereo not drawn) 3.07%, COc1ccccc1NC(=O)C1CCCN(c2ncnc3onc(-c4ccc(F)cc4)c23)C1 (stereo not drawn) -23.9%, Cc1ccc(NC(=O)c2ccc3snnc3c2)cc1C 30.1%, COC(=O)c1ccccc1NC(=O)c1nn(-c2ccc(OC)cc2)c(=O)c2c1c1ccccc1n2C -28.4%, COc1ccc(-c2cc(C(=O)NCCc3ccc(OC)c(OC)c3)c3c(-c4ccc(F)cc4)[nH]nc3n2)cc1 -27.4%, Cc1cc(C)n(-c2nc(C)c(C)c(=O)n2CC(=O)Nc2cccc([N+](=O)[O-])c2)n1 -18.9%, CN[C@H](CC(C)C)C(=O)N[C@H]1C(=O)N[C@@H](CC(N)=O)C(=O)N[C@@H]2C(=O)N[C@H]3C(=O)N[C@H](C(=O)N[C@H](C(=O)O)c4cc(O)cc(O)c4-c4cc3ccc4O)[C@H](O)c3ccc(c(Cl)c3)Oc3cc2cc(c3O[C@@H]2O[C@H](CO)[C@@H](O)[C@H](O)[C@@H]2O[C@H]2C[C@](C)(N)[C@H](O)[C@H](C)O2)Oc2ccc(cc2Cl)[C@H]1O -4.47%, CCOC(=O)Cc1c(C(=O)OCC)nnc2c(-c3ccccc3)c(C)nn12 -13.9%, COCCNc1oc(-c2ccc(OC)cc2)nc1C#N 43.2%, CCN(CC)C(=O)Cn1c(=O)n(CCc2ccccc2)c(=O)c2ccccc21 -11%, COc1cccc(N2CCN(c3ncnc4c3c(-c3ccccc3)cn4-c3cccc(C(F)(F)F)c3)CC2)c1 -26.2%, CCCNC(=O)N1[C@H](c2cccs2)[C@@H](C)C(=O)[C@@H](C)[C@@H]1c1cccs1 -18.3%, COc1ccc(S(=O)(=O)NCC(c2ccc(N(C)C)cc2)N2CCc3ccccc32)cc1F (stereo not drawn) -18.3%, Cc1cc(C)n2nc(CNS(=O)(=O)c3ccccc3)nc2n1 5.05%, Cc1cccc(NC(=O)CN2C(=O)CSc3ccc(S(=O)(=O)N4CCCC4)cc32)c1C -3.99%, COc1cccc(NC(=O)CSc2c3c(nc4ccccc24)CCCC3)c1 6.96%, O=C(Nc1ccccc1C(F)(F)F)N1CC=C(c2c[nH]c3ccccc23)CC1 -16.9%, COC(=O)CC(=O)CSc1nc2cc(C(=O)NCC(C)C)ccc2c(=O)n1CCc1ccccc1 -20.6%, COc1ccc(-c2onc(C)c2C)cc1S(=O)(=O)N1CCN(c2cc(C)ccc2C)CC1 3.46%, Cc1c(Cl)ccc2sc(N3CCN(C(=O)C4CC4)CC3)nc12 -22%, Cc1nn(C(=O)c2cccc([N+](=O)[O-])c2C)c(C)c1S(=O)(=O)N1CCCCCC1 -3.4%, Cc1cccc(NC(=O)N2CCC(CN3CCCCCC3)CC2)c1C -11.8%, CC1CCN(S(=O)(=O)c2ccc3c(c2)CCN3C(=O)Nc2ccc(Br)cc2F)CC1 -0.777%, CCOc1ccccc1C(=O)N1CCC(c2nc3ccccc3o2)CC1 -20.3%, COc1ccc(OC)c(NC(=O)CC(=O)Nc2ccc3nc4n(c(=O)c3c2)CCCCC4)c1 -23.9%, Cc1nc(SCC(=O)Nc2ccc(C(=O)O)cc2)n[nH]1 -2.67%, CCc1ccccc1NC(=O)Cn1nc(N2CCN(c3ccccc3OC)CC2)ccc1=O -4.44%, O=C1c2ccccc2S(=O)(=O)N1CCCCN1CCN(c2ncccn2)CC1 8.56%, CN(C)CCCO[C@@H]1[C@H]2OC(C)(C)O[C@H]2O[C@@H]1C(O)CO (stereo partly drawn) 8.63%, Cc1ccc(C2CCN(C(=O)c3cnn(-c4ccc(C)c(C)c4)c3C3CCN(C(=O)OC(C)(C)C)CC3)C2)cc1 (stereo not drawn) 0.462%, Cn1c([N+](=O)[O-])cnc1COC(N)=O 1.16%, Cc1cc(F)ccc1NC(=O)CCn1nc(C)c(S(=O)(=O)N2CCCCC2)c1C -32%, COc1ccccc1C(=O)Nc1ccc(S(=O)(=O)Nc2ncccn2)cc1 3.27%, COc1ccc(Cl)cc1NC(=O)c1cc(S(=O)(=O)N(C)Cc2ccccc2)ccc1F -18%, CCOC(=O)c1cnc2c(C)cccc2c1Nc1ccc(OC(C)C)cc1 -18.9%, Cc1ccc(C)c(N2CCN(c3nc4ccc(C(=O)c5ccccc5)cc4n4cnnc34)CC2)c1 -13.4%, CCOc1ccccc1OCCNC(C)Cc1ccc(OC)c(S(N)(=O)=O)c1 (stereo not drawn) 0.831%, COc1ccccc1CN(Cc1c(Cl)cccc1Cl)S(=O)(=O)c1ccc(Br)cc1 -13.5%, Cn1c(=O)[nH]c(=O)c2c1nc(CN1CCN(c3ccccc3F)CC1)n2Cc1ccc(F)cc1 -12%, O=C(NCCc1ccc(Cl)cc1)c1ccc(CSCc2cccc(Cl)c2)o1 -6.59%, Cc1ccc(Cl)cc1NC(=O)c1oc2ccc(S(=O)(=O)N3CCCCCC3)cc2c1C -10.4%, Cc1cc(C)cc(OCC(=O)N2CCC(c3nc4ccccc4s3)CC2)c1 -9.5%, CCc1cccc(C)c1NC(=O)CSc1nc2c(c(=O)[nH]1)CCC2 -20.6%, Cc1ccc2oc(=O)n(CCNC(=O)Nc3ccc(Cl)cc3)c2c1 -14.6%, Cc1cc(C(=O)NCc2ccccc2Cl)c2c(C)nn(-c3cccc(F)c3)c2n1 -23.6%, O=C(NCC(c1ccco1)S(=O)(=O)c1cccs1)c1ccc(Cl)cc1 (stereo not drawn) -4.66%, CCCN(C(=O)Nc1cn(CC(C)C)c(=O)c2ccccc12)c1ccc(F)cc1 -24.2%
